The text below walks through data of PMC12136788.

B1: ENSG00000198589:be:win_9601|3pUTR|ENSG00000198589|bound_else_gene|NA|bound_elsewhere_windowed (ssRNA)
RNA: GGGAGUUCUACAGUCCGACGAUCUAAAUUCUUUGUAUGUUGUGAACUUUGAUCUCUAUUUCUCUUGCAACAGACUUCAAGUGGUCCCUCUUUUUUUCCUACACACUCAGCUCUUCUCUAAAAGCAAGGAUUUGGAAUGAACAACAACAGAGGAUUGAGCAUCA
B2: chr6:41028375:41028595:-|CDS|ENSG00000124602|control|control|control (ssRNA)
RNA: GGGAGUUCUACAGUCCGACGAUCUGAGGAGCAGAACGGCAGCCUGCAGGAGCUGCACUACCUCAUGACCGUCAUGGAGCGGCUAGACUGCGCCUCCGCCAUCCAGAACUACCUGAGUGGGACACACGGCGGCAGCCCAGGCCCCAACAGAGGAUUGAGCAUCA
B3: chr12:114680981:114681101:-|CDS|ENSG00000135111|unk|FALSE|unique (ssRNA)
RNA: GGGAGUUCUACAGUCCGACGAUCUAAAGUGAGAUGUUCUGGGCUGGAUAAAAAAGCCAAAUACAUUUUAUUGAUGGACAUUAUAGCUGCUGAUGACUGUCGUUAUAAAUUUCACAAUUCUCGGUGGAUGGUGGCUGGUAAGGCCAACAGAGGAUUGAGCAUCA
B4: chr10:116672031:116672132:-|3pUTR|ENSG00000165868|msi1|FALSE|unique (ssRNA)
RNA: GGGAGUUCUACAGUCCGACGAUCCCUUUCCUGCCUUGCAUUAAUGCUAUCUCCCUGUGUACUGUUUCUCUUAAAUGAGCAGAUAGAAAUCUGCAGUGUUGGCAGAUAGGUGAUGGAGAGGAUGAUAAUUUUAUCUUCUGGCCACAACAGAGGAUUGAGCAUCA
B5: chr10:122937732:122937852:-|CDS|ENSG00000119965|unk|total|mutant (ssRNA)
RNA: GGGAGUUCUACAGUCCGACGAUCGUAAGUGACAACUCAAAUAUACCCAACUCCGAGUUGCUGCCUUUUCUCCAGAAUUUAUGCCGUCAAGUUAAUCAUCUCCAUGUGGGAAAUAAGACCGAGUGUCAGGAAAACAUCACCAAGCAACAGAGGAUUGAGCAUCA
B6: chr2:200490383:200490484:-|CDS|ENSG00000155729|msi1|total|mutant (ssRNA)
RNA: GGGAGUUCUACAGUCCGACGAUCUCUCCAGCCAGUGCCAUCCAGACGUCGGCUGGGGCGACAGCAAACCGGUUUCAAAGUGGCCGCCGCAGAAAGGCAGCUCAGCGCUCUGCACCUUCCAGAGCCACGGCCCUGGUGGGCACGCAACAGAGGAUUGAGCAUCA
B7: chrX:24560996:24561098:-|3pUTR|ENSG00000102230|unk|total|mutant (ssRNA)
RNA: GGGAGUUCUACAGUCCGACGAUCACUCAAGACUUUUUACAGAGAACUGUGGGCUCAGUUAUGAUCUCAGCAUCUGAAUGGUCCCGGCCGUAUCACCAUUAUCUCUGGCCCCCGGUUUGCCAAGCCGGAUGAAGACUCUAAGUGCAACAGAGGAUUGAGCAUCA
B8: ENSG00000196628:stop:overlap|stop_codon|ENSG00000196628|stop_codon|NA|stop_codon (ssRNA)
RNA: GGGAGUUCUACAGUCCGACGAUCCAACCUCCACCUCCCAGGUUCAAGCUAUCCUCCUGCCUCAGCCUCCUGAGUACCCGGGAUAGGCGUUUGUGUGAUUUUGCUAAAAUGCAUCACCAACAGCGAAUGGCUGCCUUAGGGACGCAACAGAGGAUUGAGCAUCA
B9: chr7:108149816:108149915:-|CDS_3pUTR|ENSG00000091129|msi1_unk|total|mutant (ssRNA)
RNA: GGGAGUUCUACAGUCCGACGAUCGUCAACGCCAUGAAUUCCUUUGUUUAAUUUUUAAGCUCUUUGCCAAUAUUCCAUUUCUCCCGAAUGUUUAUCCUAAGCACUUGUUUGUCAGCCCUCUCAUACUAUGAACAUAUGGGCCGACAACAGAGGAUUGAGCAUCA
B10: chrX:13662881:13662996:+|CDS|ENSG00000176896|unk|total|mutant (ssRNA)
RNA: GGGAGUUCUACAGUCCGACGAUCUCGAAUUCUCUGUCUUCCCAAGACGUUGCAAAACUCAGUGAAAUGAUUGUGCCUGAAAACCGAGCCAUUCAAUUGAAACCUAAGGAAGAGCAUUUUGGGGAUGGUGACCCUGAAUCCACUCAACAGAGGAUUGAGCAUCA
B11: chr6:36232219:36232320:+|3pUTR|ENSG00000096070|unk|total|mutant (ssRNA)
RNA: GGGAGUUCUACAGUCCGACGAUCGCCCGGGAAGGACAUGGUGUAUAUAAUUGUAAAAUACUGUUCUAAAUUAUUCAGGCCUACCGUUUCCAUUACUGGAGUCCUCCAUUGUGUGGCCACACAGUGUCGUUGAUUUAAAGGAGCCAACAGAGGAUUGAGCAUCA
B12: ENSG00000070961:be:win_2601|CDS|ENSG00000070961|bound_else_gene|NA|bound_elsewhere_windowed (ssRNA)
RNA: GGGAGUUCUACAGUCCGACGAUCGAUUGUUGCUUUUACGGGCGCCUGCAUUACUCAAGACUCACCGCUUAAGGCUGUGCAGAUGCUGUGGGUAAACCUCAUAAUGGAUACACUCGCUUCCCUGGCUCUGGCAACGGAACCACCCAACAGAGGAUUGAGCAUCA
B13: ENSG00000136451:be:win_4001|3pUTR|ENSG00000136451|bound_else_gene|NA|bound_elsewhere_windowed (ssRNA)
RNA: GGGAGUUCUACAGUCCGACGAUCGUCAUGUCUUCUUUUGGGAGGGAGAGAGUCGAUGGCAGGAGGGGGUUUUGGGUGGGCCACUGAAAAGGGGUACCGAAUAGGUUGUGUGAUGAAAUUCUGUGUCUUGGAACUGGAAUUGAGCAACAGAGGAUUGAGCAUCA
B14: chr12:111449306:111449407:+|3pUTR|ENSG00000111252|msi1|total|mutant (ssRNA)
RNA: GGGAGUUCUACAGUCCGACGAUCGCUGGCUUGGUGCCCUCCAAGCAUCUAAUGGCUUAUUAAAUUAUCCCACAAGUGGGUUUCCGGCUCCUUUUUUGAGCCAAAAUGGAAGCUGGGAAUCUGGUGCCAUAACUAAUGAGAAACCAACAGAGGAUUGAGCAUCA
B15: chrX:71240429:71240530:-|3pUTR|ENSG00000147130|msi1|FALSE|unique (ssRNA)
RNA: GGGAGUUCUACAGUCCGACGAUCGGCUUUGGGUUUCCUGACCCAUCCCGCAUAGGUAGAGCCUCUUGUUCCUAGGCAUGACCUAGGGAAAAACCCAGCUGCCUUCUCUGCCCUGUGCCCACUCCCUUCUCUACUCUUCCCCAGCAACAGAGGAUUGAGCAUCA
B16: chr10:78022286:78022401:-|CDS|ENSG00000148606|unk|total|mutant (ssRNA)
RNA: GGGAGUUCUACAGUCCGACGAUCAACACCGUAUCUCCAUUUCUGCCUUUCUUCGUUUCCACCGGAAAACUUGAAUCCCUCCGCCGUUCUGAAUUUAUUUAAACGAAUCCCAGCUGAAGAUGUUCCUCUACUUCUGAUGAACCCCAACAGAGGAUUGAGCAUCA
B17: chr3:128622278:128622381:-|CDS|ENSG00000163902|unk|total|mutant (ssRNA)
RNA: GGGAGUUCUACAGUCCGACGAUCAGCCAGGAUGAAGGCCGCCUGCAUCACAGAGCAGGUCUUGACCCUGGUCAACAAGAGAACCGGCCUUUACCGUCACUUUGACGAGACCGUCAACCGGUACAAGCAAUCCCGGGACAUCUCCAACAGAGGAUUGAGCAUCA
B18: chr19:17405403:17405546:-|CDS|ENSG00000130303|unk|total|mutant (ssRNA)
RNA: GGGAGUUCUACAGUCCGACGAUCUGACUAUUGCAGAGUGCCCAUGGAAGACGGGGAUAAGCGCUGUAAGCUUCUGCUGGGGACCGGAAUUCUGGUGCUCCUGAUCAUCGUGAUUCUGGGGGUGCCCUUGAUUAUCUUCACCAUCAACAGAGGAUUGAGCAUCA
B19: chr12:20680103:20680206:+|CDS|ENSG00000172572|unk|FALSE|unique (ssRNA)
RNA: GGGAGUUCUACAGUCCGACGAUCCUUACAGAACCACAAGAUGUGGAAGAAAGUCAUUGAAGAGGAGCAACGGUUGGCAGGCAUAGAAAAUCAAUCCCUGGACCAGACCCCUCAGUCGCACUCUUCAGAACAGAUCCAGGCUAUCAACAGAGGAUUGAGCAUCA
B20: chr4:127885990:127886091:+|CDS|ENSG00000142731|msi1|FALSE|unique (ssRNA)
RNA: GGGAGUUCUACAGUCCGACGAUCAUUACUUAUCGGGAGACCACCCUUCGACACUGACACAGUCAAGAACACAUUAAAUAAAGUAGUAUUGGCAGAUUAUGAAAUGCCAUCUUUUUUGUCAAUAGAGGCCAAGGACCUUAUUCACAACAGAGGAUUGAGCAUCA
B21: chr7:41967724:41967825:-|CDS|ENSG00000106571|msi1|total|mutant (ssRNA)
RNA: GGGAGUUCUACAGUCCGACGAUCCCCCAUCAGCAACUAUUCCAACAGUGGGCUCGAGCUUCCUCUGACCGAUGGAGGCCGUACCGGAGACCUCAGUGCCAUCGAUGAAACCCCAAUCAUGGACUCAACCAUUUCCACUGCAACCAACAGAGGAUUGAGCAUCA
B22: ENSG00000116991:stop:overlap|stop_codon|ENSG00000116991|stop_codon|NA|stop_codon (ssRNA)
RNA: GGGAGUUCUACAGUCCGACGAUCCGACAGCUCAGCUGCGGAAAUUCACAGAAUGGUUUUUCACCACCAUCGACAAAAAAUCUUAGCCAAUCCGCACCUCAUCAAGGGACCACUGGGAAAUGCCCCUUGUCCCUUUGAAGUCACCAACAGAGGAUUGAGCAUCA

The list shows a part of the results.

The assay addresses MSI1 full-length (mouse, UniProt Q61474 1-362). As to the kind of experiment: nsRBNS (natural sequence RNA bind-n-seq); RBNS binding buffer (assumed for nsRBNS): 25 mM Tris pH 7.5, 150 mM KCl, 3 mM MgCl2, 0.01% Triton X-100, 500 ug/ml BSA, 20 U/ml SUPERase-In, 4 C; UNK is unkempt and MSI1 is Musashi-1; names of the RNAs are library labels; protein concentration not given here; high values mean tight binding.
UniProt Q61474, sequence (Q61474 whole entry): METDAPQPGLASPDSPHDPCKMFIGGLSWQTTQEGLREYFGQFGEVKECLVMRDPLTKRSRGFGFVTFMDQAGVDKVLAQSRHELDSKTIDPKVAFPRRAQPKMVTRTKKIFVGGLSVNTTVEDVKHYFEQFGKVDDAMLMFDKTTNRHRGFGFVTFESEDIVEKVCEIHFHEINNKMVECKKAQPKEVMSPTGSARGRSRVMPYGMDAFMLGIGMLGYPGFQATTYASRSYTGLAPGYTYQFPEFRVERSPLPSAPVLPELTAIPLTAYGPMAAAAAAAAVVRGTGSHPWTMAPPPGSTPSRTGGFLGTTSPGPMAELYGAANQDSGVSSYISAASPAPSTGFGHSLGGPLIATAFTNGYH
Molecule B1 came in with a binding signal of 0.416 enrichment R. For B2, the binding signal came to 0.404 enrichment R.

B3 gave a binding signal of 0.395 enrichment R. For the molecule B4, the binding signal is 0.275 enrichment R. As to B5, the binding signal was determined as 0.448 enrichment R. Molecule B6 displayed a binding signal of 0.334 enrichment R. The result for B7 reads 0.37 enrichment R; that for B8, 0.277 enrichment R; that for B9, 0.895 enrichment R. The molecule B10 returned a binding signal of 0.295 enrichment R.

Consider B11, for which the binding signal was determined as 0.837 enrichment R. B12 came in with a binding signal of 0.354 enrichment R. B13 returned a binding signal of 0.709 enrichment R.

Molecule B14 registered a binding signal of 0.374 enrichment R. Consider B15, for which the binding signal stood at 0.654 enrichment R. In the case of B16, the binding signal amounted to 0.507 enrichment R. The result for B17 reads 0.233 enrichment R; that for B18, 0.551 enrichment R; that for B19, 0.531 enrichment R. Next, B20: 6.34 enrichment R; B21: 0.513 enrichment R; B22: 0.474 enrichment R.
